Legend:
Experiment in all cases: SPR
[1] = target: T1, C-terminally biotinylated IL-13Rα2 (human, UniProt Q14627 29-331, biotin on the C-terminal biotinylation peptide)
T1 sequence (looked up): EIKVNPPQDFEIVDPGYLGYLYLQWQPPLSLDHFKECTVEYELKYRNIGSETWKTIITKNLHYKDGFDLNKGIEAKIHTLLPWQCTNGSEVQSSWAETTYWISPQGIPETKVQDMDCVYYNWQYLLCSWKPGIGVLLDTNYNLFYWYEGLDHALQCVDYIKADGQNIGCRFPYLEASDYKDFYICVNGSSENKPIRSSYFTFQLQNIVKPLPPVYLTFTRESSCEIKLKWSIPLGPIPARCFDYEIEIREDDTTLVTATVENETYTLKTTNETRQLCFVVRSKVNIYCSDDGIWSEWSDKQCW

[2] = target: T1, C-terminally biotinylated IL-13Rα2; remark: listed apart in the source
[3] = target: T2, C-terminally biotinylated IL-13Rα1 (UniProt P78552 22-343, biotin on the C-terminal biotinylation peptide)
T2 sequence (looked up): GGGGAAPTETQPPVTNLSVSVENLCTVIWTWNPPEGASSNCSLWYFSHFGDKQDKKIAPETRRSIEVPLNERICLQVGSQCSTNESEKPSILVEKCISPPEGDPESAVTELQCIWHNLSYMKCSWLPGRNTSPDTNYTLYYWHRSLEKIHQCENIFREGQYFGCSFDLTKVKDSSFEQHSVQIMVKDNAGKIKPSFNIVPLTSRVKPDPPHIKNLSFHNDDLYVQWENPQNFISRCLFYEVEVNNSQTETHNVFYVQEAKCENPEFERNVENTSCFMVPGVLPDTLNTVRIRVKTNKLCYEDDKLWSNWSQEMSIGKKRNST

Kd [1]: < 0.1 pM
koff [2]: 1.93e-06 s⁻¹
kon [2]: 1.22e+08 M⁻¹ s⁻¹
koff [3]: 0.00397 s⁻¹
kon [3]: 2.35e+06 M⁻¹ s⁻¹
B1: Human IL-13 ([…]), wild type, fully glycosylated (ligand)
chain: not shown
modifications: fully glycosylated

From article PMC2850121 (Structure (London, England : 1993), 2010)
